Results: the supplement of paper PMC5499739
The full ranking holds about 16,000 sequences; the median of “Z-score” is about -0.37, and the highest 2% start at about 3.1. This is one part of the list.

tested on: RBM10 RRM1-ZnF-RRM2 (GST-tagged construct); experiment: RNAcompete 7-mer binding Z-score; higher = stronger binding preference
Outline: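 A designed pool of 241 399 RNAs, each up to 41 nt and transcribed from microarray-derived DNA templates, was used at 1.5 nmol with 20 pmol of GST-tagged RBM10 constructs. The mixture, in 1 ml Hepes pH 7.8 buffer with KCl, NaCl, glycerol, DTT, BSA and glutathione Sepharose beads, was held 30 min at 4°C and then washed four times for 2 min at 4°C. Bound RNA was read out by microarray hybridisation, and enrichment of each heptamer motif was scored as a one-sided Z-score over the probes carrying it.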

Row | Sequence | RNAcompete 7-mer binding Z-score
1 | UGCCACG | -0.435
2 | AUACAAG | 0.33
3 | UUUGCAA | -0.602
4 | UUCGUCU | -0.544
5 | UAUGCAC | -0.435
6 | UACCCCC | -0.511
7 | AUUGGCA | 0.541
8 | UACGAUU | -0.395
9 | AUAGGGA | 2.9
10 | CUGCCGA | -0.715
11 | CCUUACC | -0.712
12 | CUGAACG | -0.398
13 | ACUGGAC | -0.0452
14 | UCUCGAU | -0.715
15 | GCAGUAG | 0.891
16 | CCCUUGU | -0.777
17 | GAGGACU | 0.534
18 | GGACAAC | 0.844
19 | ACCACCU | -0.599
20 | AAUUCCG | -0.694
21 | GAAUUCG | -0.231
22 | GCACAGC | -0.0343
23 | GGUGAGC | 2.6

Row | Sequence | RNAcompete 7-mer binding Z-score
24 | UAUGCGA | 0.0714
25 | CUUCAUU | -0.712
26 | CAUCUCA | -0.814
27 | AAACCUG | -0.471
28 | AUACUGC | -0.577
29 | CCGAUGU | -0.759
30 | AUUGAAC | -0.337
31 | GCUGUGA | -0.0889
32 | UAGUCCU | -0.697
33 | CUACCGC | -0.77
34 | UUAGGAA | 0.971
35 | AAUAUCU | -0.61
36 | CAGAAUG | 0.545
37 | GCCCUUG | -0.777
38 | AAGGGGA | 4.44
39 | UUUCAGU | -0.442
40 | AUGAGCC | -0.3
41 | CUAUCUU | -0.719
42 | UCAUCUU | -0.887
43 | AGGCCUU | -0.653
44 | UCUCAGG | -0.267
45 | GACGUUG | 0.0604
46 | CUACCUU | -0.865

Row | Sequence | RNAcompete 7-mer binding Z-score
47 | CUCAUGG | -0.293
48 | UAAUGAC | -0.231
49 | AGUCCAG | -0.078
50 | CGGGCUC | 0.0604
51 | UGUCACG | -0.566
52 | GUUGAUA | 0.261
53 | CCUGGCG | -0.0925
54 | UAAUAUC | -0.57
55 | AUGAAUA | -0.133
56 | UACUAGC | -0.617
57 | UCCUGAU | -0.803
58 | UAGGAGC | 1.74
59 | CUUGCUG | -0.814
60 | GUCUCUA | -0.646
61 | UGUCGGG | 0.956
62 | UCGCCUA | -0.664
63 | CAGUUCU | -0.905
64 | CUGCCUC | -0.912
65 | GCUCAUU | -0.836
66 | UCGCUCA | -0.694
67 | CGGUCAU | -0.326
68 | UGCGCUU | -0.744
69 | AUGCUGA | -0.0488

Row | Sequence | RNAcompete 7-mer binding Z-score
70 | CCGGCGC | -0.588
71 | ACCUCUC | -0.894
72 | AUAAAUA | -0.271
73 | GACAUUC | -0.555
74 | CCCCAGC | -0.449
75 | CCAUCUG | -0.828
76 | CCGGUAG | 0.315
77 | UCUCCCU | -0.774
78 | ACUUUGC | -0.857
79 | UCUCACA | -0.588
80 | AAGCAAU | -0.00512
81 | UGAGCAC | -0.107
82 | AAAGGAU | 3.03
83 | CGAGGCU | 0.217
84 | CUGAUUC | -0.799
85 | UAUUCUU | -0.85
86 | GUCUUCG | -0.366
87 | UUACAUU | -0.686
88 | CUUAGUC | -0.712
89 | GGUUCAU | 0.239
90 | CCGGGCU | -0.337
91 | GGCCAAC | -0.0962
92 | UUUGCUC | -0.916

Row | Sequence | RNAcompete 7-mer binding Z-score
93 | CAAGGGU | 2.85
94 | ACGAUGG | 1.82
95 | CCCUCUA | -0.795
96 | AUCACAG | -0.103
97 | AUAUACU | -0.439
98 | AUCUUGU | -0.803
99 | AUUAAAA | -0.442
100 | GUAGCAU | -0.173
101 | ACGCUUC | -0.785
102 | CGCAGUG | -0.027
103 | AUUCACG | -0.435
104 | CAAGGUA | 1.94
105 | AACUAGA | -0.573
106 | GGUCGAU | 0.261
107 | CAAGAUU | -0.53
108 | GGUCACA | 0.417
109 | GCUCUGG | -0.14
110 | UAUGGAC | 1.46
111 | CCGUUGC | -0.675
112 | AAAGUCG | 0.00216
113 | AGCCGUC | -0.497
114 | AAUACAC | -0.395
115 | UAUCGGC | -0.46

Row | Sequence | RNAcompete 7-mer binding Z-score
116 | UCCCCUU | -0.737
117 | GUUAGAU | 0.228
118 | CUUACGU | -0.905
119 | GCCUUGA | -0.653
120 | UCAAAAG | -0.482
121 | CAAAUAC | -0.449
122 | UUCGUUG | -0.304
123 | AGAAUUA | -0.158
124 | CAGUCGC | -0.246
125 | CCAUGUA | -0.355
126 | CCCCUGC | -0.73
127 | CUGCGCC | -0.876
128 | AAUAAAC | -0.457
129 | CUGGUGC | -0.205
130 | UCAGGAU | 0.21
131 | AAAACGC | -0.235
132 | AUCGCCG | -0.672
133 | UUAUGGC | -0.315
134 | AUAACAG | 0.188
135 | CACCGGC | -0.114
136 | ACAUACG | -0.0306
137 | AUAAAUU | -0.522
138 | CUAGGAU | 0.323

Row | Sequence | RNAcompete 7-mer binding Z-score
139 | AAGUGCC | -0.402
140 | UUGUGAU | -0.457
141 | UUGAAUG | -0.0743
142 | GCAUUGC | -0.402
143 | CACCAAA | -0.788
144 | GAUCUAC | -0.766
145 | CUUUCUC | -0.868
146 | GCCACCG | -0.49
147 | UCCUACA | -0.77
148 | UCUUAUC | -0.752
149 | UCAGAAC | -0.391
150 | CACAAGG | 0.742
151 | UGUCAUA | -0.541
152 | UACAUCC | -0.672
153 | UCCCAAU | -0.77
154 | UCAGAAA | -0.0415
155 | GAGCUCU | -0.712
156 | UGCCAGU | -0.347
157 | UCAUACA | -0.464
158 | AACCUAU | -0.843
159 | GCACCCC | -0.358
160 | AGGCAGG | 1.77
161 | GGCAAGU | 0.833

Row | Sequence | RNAcompete 7-mer binding Z-score
162 | UGGCGAC | 0.935
163 | CUUGCAA | -0.814
164 | UACUGUA | -0.486
165 | CAGGACC | 0.0896
166 | CCCAUGU | -0.77
167 | AGACGGU | 0.476
168 | CUUAUUA | -0.715
169 | UUCGCUC | -0.69
170 | ACCAUUU | -0.97
171 | GGUAUAA | 1.16
172 | GGGCAGC | 1.7
173 | GUCGGCU | -0.0925
174 | AUCGUUC | -0.61
175 | UGCCUUA | -0.905
176 | GGUUCCU | -0.289
177 | ACGCCUG | -0.832
178 | GGGGCCU | 0.523
179 | GGAGAAG | 3.03
180 | CUUGCCG | -1.03
181 | UCACUUC | -0.901
182 | GUUCACU | -0.617
183 | AGGUGAG | 2.9
